Source: the supplement of paper PMC11417369
± gives the standard deviation of the averaged measurements. The list shows a part of the results.

Each sequence was assayed on PfAP2-I AP2 domain 3 (GST-tagged) (assay: gcPBM binding intensity (ln(normalized median fluorescence intensity)); higher = stronger DNA binding).
Summary of the method: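 Using an Agilent 4 × 180k array, primer-extended double-stranded 36-bp intergenic genomic probes and negative controls were exposed for 1 h to GST-fused P. falciparum DNA-binding domains expressed in E. coli. Binding was carried out in 1× PBS with 1% milk, 0.2 mg/ml BSA, 0.5% salmon testes DNA and 0.03% Triton X-100, and protein was detected with Alexa488 anti-GST antibody and a 488 nm scan. Binding intensity is the highest Masliner-normalised natural-log median intensity across replicate spots of either probe orientation.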
With “AACATACATAGACACACACACACACGCACACGCACA [CACACA_site6373]” the “gcPBM binding intensity (ln)” value was 8.44 ± 0.29.
With “GAAAATACGTTTAATCGTACATATATATAATATATA [XGTACX_site4243]” the “gcPBM binding intensity (ln)” value was 7.68 ± 0.34.
For “TATTTACCCTCATGTTGTACTTTTCATTCATTTTAT [XGTACX_site7794]”, the “gcPBM binding intensity (ln)” value was 8.16 ± 0.61.
With “ACAAGTTTTTTTTTATCACACACAAAAAAAAAAATA [CACACA_site8377]” the “gcPBM binding intensity (ln)” value was 7.9 ± 0.44.
For “TTTATTATTTTTAGGAGTACACAAAATAAAACAAAT [XGTACX_site8841]”, the “gcPBM binding intensity (ln)” value was 8.23 ± 0.24.
For “AAATGTTATATATAATGTACTTGTAAGAACGTTCCT [XGTACX_site2840]”, the “gcPBM binding intensity (ln)” value was 7.58 ± 0.69.
With “AATAATGTATGAAATAAACACACAAGTAAGTACATA [CACACA_site8776]” the “gcPBM binding intensity (ln)” value was 7.87 ± 0.38.
In the case of “ATAATTTTAAATAAATGTACATATAGATGTGTGTAA [XGTACX_site3958]”, the “gcPBM binding intensity (ln)” value is reported as 8.2 ± 0.44.
With “AAAATTATATATTATAGTACATAAAATATTGATAAA [XGTACX_site8988]” the “gcPBM binding intensity (ln)” value was 7.7 ± 0.32.
In the case of “ATGAGAAAATATATTATTTTATATGAACAAGTTTAT [XGTACX_negctrl_site372]”, the “gcPBM binding intensity (ln)” value is reported as 7.38 ± 0.69.
For “TATAACATTGTATGAATGCACTTTTATCTATTTTAA [GTGCAC_site9903]”, the “gcPBM binding intensity (ln)” value was 9.57 ± 0.33.
With “AAGATACACTTAATCGCACACGAAATTATATATTTA [CACACA_site3063]” the “gcPBM binding intensity (ln)” value was 7.89 ± 0.4.
“TTTTTTTTTTATGTTATTAAAAAAAAAAAAAATTAA [CACACA_negctrl_site222]” was tested, and the “gcPBM binding intensity (ln)” value was 7.57 ± 0.38.
For “ATATATAATCATATGTGTACATATATATTAATTTAA [XGTACX_site2839]”, the “gcPBM binding intensity (ln)” value was 7.79 ± 0.32.
“AATTCAAAATAAAAATGTACATATATCAGAATATGG [XGTACX_site42]” was tested, and the “gcPBM binding intensity (ln)” value was 7.87 ± 0.52.
In the case of “AAAAAAAAAAAAAAAACACACATTTAATGAACTTAT [CACACA_site1276]”, the “gcPBM binding intensity (ln)” value is reported as 8.71 ± 0.47.
In the case of “ACTTGTAAGAAACACACACACACACCGATATATATA [CACACA_site4594]”, the “gcPBM binding intensity (ln)” value is reported as 8.28 ± 0.68.
In the case of “AAAAATAAGAAAAAGTGTACTTTATTATGTATATAT [XGTACX_site2305]”, the “gcPBM binding intensity (ln)” value is reported as 8.12 ± 0.2.
“ATTATTTTTTTTCTTATACACACCATGCATCAAACT [CACACA_site2128]” was tested, and the “gcPBM binding intensity (ln)” value was 8.47 ± 0.66.
“CCAACTATATTATGAAGTACATATATATTATATATA [XGTACX_site5767]” was tested, and the “gcPBM binding intensity (ln)” value was 7.8 ± 0.16.
For “TATACATATTTTATAGCACACAAATAATAATATGTA [CACACA_site8129]”, the “gcPBM binding intensity (ln)” value was 8.9 ± 0.2.
With “AAACCTACATAACATACACACGCATATATATAATTT [CACACA_site8923]” the “gcPBM binding intensity (ln)” value was 8 ± 0.6.
With “TTTTTTTTTTTTTATTGTACATGCAAAAAATTCCAC [XGTACX_site2371]” the “gcPBM binding intensity (ln)” value was 8.07 ± 0.44.
With “ATATATATATATTGTAGTACTTATTAAATTATTTAT [XGTACX_site6235]” the “gcPBM binding intensity (ln)” value was 8.985 ± 0.078.
